According to the supplement of paper PMC12217912:
Some of the results follow. Sequences were assembled here from the parent chain. Inactive controls read about 0.05.

B1: TEV protease; numbered along this chain (parent)
chain: MGESLFKGPRDYNPISSSICHLTNESDGHTTSLYGIGFGPFIITNKHLFRRNNGTLVVQSLHGVFKVKDTTTLQQHLVDGRDMIIIRMPKDFPPFPQKLKFREPQREERICLVTTNFQTKSMSSMVSDTSCTFPSGDGIFWKHWIQTKDGQCGSPLVSTRDGFIVGIHSASNFTNTNNYFTSVPKNFMELLTNQEAQQWVSGWRLNADSVLWGGHKVFMVKPEEPFQPVKEATQL

Variants of: B1
Assay: raw area under fraction-flipped curve 0-4 h after induction (AUC4h, not background-subtracted), DNA-recorder readout of cleavage of the substrate (dimensionless); higher = more cleavage of the substrate by the protease variant
Conditions: temperature: 34 °C; time window: 0-4 h after rhamnose induction
Description: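 In vivo DNA recorder in E. coli TOP10(DE3) ΔrhaA at 34 °C. Each TEVp single-site mutant (parent TEVp 0) is paired with a single-site variant of the 7-mer TEVs (canonical ENLYFQ|S). The substrate sits between flexible linkers in a Bxb1-sfGFP-TEVs-SsrA fusion, so cleavage stabilises Bxb1 and speeds flipping of a recombination array, read by NGS. The value is the raw area under the fraction-flipped curve over 0-4 h after rhamnose induction (AUC4h), with ≥20 reads per time point. It is not background-subtracted; inactive controls average about 0.047.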
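Note: Bxb1 expression induced with 0.2% (w/v) L-rhamnose at OD600 near 0.5, cultures sampled hourly, flipped fraction per protease–substrate barcode pair counted by paired-end Illumina sequencing.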

Variant	area with substrate ENLYCQS	area with substrate ENLYDQS	area with substrate ENLYEQS	area with substrate ENLYMQS	area with substrate ENLYQQS	area with substrate ENLYRQS	area with substrate ENLYWQS	area with substrate ENLYYQS	area with substrate ENLYGQS	area with substrate ENLYHQS	area with substrate ENLYKQS	area with substrate ENLYPQS	area with substrate ENLYSQS	area with substrate ENLYIQS	area with substrate ENLYLQS	area with substrate ENLYVQS	area with substrate ENLYNQS	area with substrate ENLYTQS
P228F	0.0824	0.0554	0.0699	0.108	0.0567	0.0638	0.0674	0.0603										
V64E		0.0604	0.0691				0.0834		0.0603	0.0671	0.0655	0.129	0.0777					
V64D		0.0678		0.11		0.0533		0.0572		0.0765	0.0552			0.119	0.0331	0.107		
V64Y		0.0762	0.0716	0.104		0.0964	0.0933			0.0769	0.0704	0.0614	0.0676	0.104			0.066	0.0678
P96R		0.0735	0.0759				0.0846				0.0681			0.132	0.127		0.059	
L5M		0.0586	0.0702		0.0714			0.0759	0.0591	0.0811	0.0945	0.0749	0.0834	0.152		0.145	0.065	0.0712
F163H	0.115			0.0418		0.0523				0.0684	0.0216	0.0641		0.0832			0.0804	
I85L		0.0719	0.0719	0.0875		0.0671			0.0368		0.0314		0.0939	0.125		0.121		0.097
V183K	0.0474	0.05	0.0628	0.0576		0.0597			0.0331	0.0621	0.0583	0.0468	0.0534		0.0458			
G136V	0.0924		0.0787	0.0688	0.0618	0.0629	0.104	0.041	0.0799	0.0825	0.0495	0.0751	0.0835			0.0918	0.0614	0.0595
D208T	0.101	0.0635	0.0626	0.0721	0.06	0.0884	0.0652	0.063	0.0672	0.0569	0.0591	0.0648	0.0573	0.0901	0.0651	0.0892	0.0603	
T174R	0.0923	0.058	0.0584	0.0681	0.0486				0.0684	0.0645		0.0679		0.098	0.0645	0.101	0.0639	0.0676
P222W	0.0589	0.0551	0.0529		0.0759	0.0691		0.0607	0.0712	0.0615	0.0609	0.0681	0.0548	0.0671	0.0348	0.0888		0.0787
R102G		0.0534	0.0435	0.0631	0.0522	0.039	0.07		0.0594	0.0447	0.0526	0.041	0.053	0.0677	0.0645		0.0507	
R102I		0.0354	0.0412	0.0618			0.0457	0.0539	0.0399	0.0556	0.0593	0.0442	0.0703	0.0607		0.0676	0.0492	0.0319
P184Q	0.104	0.0611	0.0681	0.0676	0.0639	0.0544	0.0617	0.0633		0.0564	0.0629	0.0526		0.0983			0.0618	
P184E	0.0649	0.0575	0.0552	0.0659	0.0576	0.0502		0.0557	0.054	0.0534	0.0622	0.0532	0.0522		0.0602		0.0841	0.0583
L205V	0.0638				0.0706			0.0704				0.045					0.0666	
D79N		0.0451	0.0868		0.0624	0.0567	0.0888		0.0673		0.0612		0.0667	0.0885		0.0664	0.059	
F101W		0.0919	0.0643	0.0912	0.0498	0.0664		0.0704	0.0629	0.0714	0.0515					0.124		
V200F	0.0726		0.058	0.0453		0.0509		0.0647			0.0556	0.0608		0.0753	0.0542	0.0988		
V200Y	0.064	0.064	0.0561	0.0519		0.066			0.0453	0.0634	0.0617					0.0677	0.0798	0.0593
L77K		0.0643			0.0643					0.0595	0.0585			0.0676		0.0522	0.0626	
A232R	0.0863	0.0694	0.0525	0.0811	0.0624	0.0481	0.0704	0.0522	0.0862	0.0659	0.064	0.0947			0.0797	0.109	0.0992	0.0798
A232E	0.069	0.0619	0.0674	0.0728				0.0709	0.0735	0.0605	0.0647	0.0785		0.122	0.0785	0.119		0.103
D137P	0.112						0.106		0.0809				0.0717	0.112				
S16F		0.059	0.0708	0.0728		0.0879	0.0997	0.0733		0.0654	0.0695	0.0674	0.0892	0.124		0.118	0.0723	
Y12A		0.0726	0.0691	0.084		0.151		0.0821	0.061	0.066	0.0783	0.0718	0.07			0.141	0.0848	0.0616
S60T		0.0512	0.0702	0.0892	0.0608					0.0679	0.0488	0.0662				0.129	0.0727	0.0844
T176G	0.0674	0.0454	0.0627	0.0661	0.066		0.0635	0.0572	0.0583	0.0643				0.0758		0.0682	0.0645	0.0683
